Experimental data taken from the supplement of paper PMC4967469.
A lower IC50 marks a more sensitive line; fits outside the tested doses are given as limits. For AUC the same curve is integrated over the 256-fold range of doses and scaled to a fraction; the more sensitive the line, the further below 1. For part of these data: Any top dose called inferred was derived from the fitted curves, not read from the paper. For part of these data: An entry number marks a drug with two screens in the source, which often give different values.

Legend:
Assay in all cases: Viability of human cancer cell lines after 72 h of drug (GDSC screen)
[1] = compound: Nc1ccn([C@@H]2O[C@H](CO)[C@@H](O)[C@@H]2O)c(=O)n1 [Cytarabine]; conditions: top dose 2 µM
Experimental: (§1)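 Human cancer cell lines in 384-well plates, medium with 10% serum, drug for 72 h over a 256-fold dose range (nine 2-fold or five 4-fold steps up to the top dose). Adherent lines were fixed and stained with the nucleic acid dye Syto60, suspension lines read with resazurin; signal relative to control wells, capped at 0 and 100%. One two-parameter sigmoid per drug and line, fitted in a mixed model over all curves with the slope shared within a line.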

[2] = compound: COc1nc(C)cnc1NS(=O)(=O)c1cccnc1-c1ccc(-c2nnco2)cc1 [Zibotentan]; conditions: top dose 20 µM; top dose inferred
Experimental: as §1

[3] = compound: CCn1c(-c2nonc2N)nc2cnc(Oc3cccc(NC(=O)c4ccc(OCCN5CCOCC5)cc4)c3)cc21 [GSK269962A]; conditions: top dose inferred
Experimental: as §1

[4] = compound: O=c1cc(-c2cccc3c2Sc2ccccc2S3)oc(N2CCOCC2)c1 [KU-55933]; conditions: top dose 10 µM
Experimental: as §1

[5] = compound: C/C=C(/C)C(=O)O[C@H]1C(C)=C2[C@H]([C@@H]1OC(=O)CCCCCCC)[C@@](C)(OC(C)=O)C[C@H](OC(=O)CCC)[C@@]1(O)[C@H]2OC(=O)[C@@]1(C)O [Thapsigargin]; conditions: top dose 0.512 µM; top dose inferred
Experimental: as §1

[6] = compound: Cc1cnc(-c2cnc(NCCNc3ccc(C#N)cn3)nc2-c2ccc(Cl)cc2Cl)[nH]1 [CHIR-99021]
Experimental: as §1

[7] = compound: C[C@]1(c2nc3c(C(N)=O)cccc3[nH]2)CCCN1 [ABT-888]; conditions: top dose 5 µM; top dose inferred
Experimental: as §1

[8] = compound: C=CC(=O)Nc1cc(-n2c(=O)ccc3cnc4ccc(-c5cn[nH]c5)cc4c32)ccc1C [QL-X-138]; conditions: top dose 10.24 µM; top dose inferred
Experimental: as §1

[9] = compound: Cc1ccc(F)c(NC(=O)Nc2ccc(-c3cccc4[nH]nc(N)c34)cc2)c1 [ABT-869]; conditions: top dose 1.024 µM; top dose inferred
Experimental: as §1

[10] = compound: COc1cc2ncnc(-n3nc(-c4ccccn4)nc3N)c2cc1OC [CP466722]; conditions: top dose 16 µM; top dose inferred
Experimental: as §1

[11] = compound: COc1cc(O)c2c(c1)/C=C/C[C@H](O)[C@H](O)C(=O)/C=C\C[C@H](C)OC2=O [(5Z)-7-Oxozeaenol]; conditions: top dose 10 µM; top dose inferred
Experimental: as §1

[12] = compound: COc1cc(N2CCC(O)CC2)ccc1Nc1cc(Nc2ccccc2S(=O)(=O)C(C)C)c2cc[nH]c2n1 [MPS-1-IN-1]; conditions: top dose 20 µM; top dose inferred
Experimental: as §1

[13] = compound: Cc1ccc(-c2c(C(=O)CCl)n(CCCO)c3ncnc(N)c23)cc1 [CMK]; conditions: top dose 4 µM; top dose inferred
Experimental: as §1

[14] = top dose 2.5 µM, screen: GDSC drug entry 127
[15] = top dose 5 µM, screen: GDSC drug entry 1192
[16] = top dose 2.56 µM, screen: GDSC drug entry 154
[17] = top dose 10 µM, screen: GDSC drug entry 1241, top dose inferred

Row | Cell Line | AUC [1] | IC50 [1] | AUC [2] | IC50 [2] | AUC [3, 14] | IC50 [3, 14] | AUC [3, 15] | IC50 [3, 15] | AUC [4] | IC50 [4] | AUC [5] | IC50 [5] | AUC [6, 16] | IC50 [6, 16] | AUC [6, 17] | IC50 [6, 17] | AUC [7] | IC50 [7] | AUC [8] | IC50 [8] | AUC [9] | IC50 [9] | AUC [10] | IC50 [10] | AUC [11] | IC50 [11] | AUC [12] | IC50 [12] | AUC [13] | IC50 [13]
1 | COR-L95 (small cell lung carcinoma, adherent) | 0.861 | > 2 µM | 0.981 | > 20 µM | 0.981 | > 2.5 µM | 0.946 | > 5 µM | 0.987 | > 10 µM | 0.889 | > 0.512 µM | 0.987 | > 2.56 µM | 0.984 | > 10 µM | 0.987 | > 5 µM | 0.5 | 0.638 µM | 0.975 | > 1.02 µM | 0.87 | > 16 µM | 0.931 | > 10 µM | 0.897 | > 20 µM | 0.956 | > 4 µM
2 | COR-L279 (small cell lung carcinoma, suspension) | 0.991 | > 2 µM | 0.988 | > 20 µM | 0.847 | 1.55 µM | 0.927 | > 5 µM | 0.988 | > 10 µM | 0.533 | 0.039 µM | 0.991 | > 2.56 µM | 0.99 | > 10 µM | 0.991 | > 5 µM | 0.562 | 0.925 µM | 0.988 | > 1.02 µM | 0.782 | 5.95 µM | 0.85 | 6.33 µM | 0.969 | > 20 µM | 0.99 | > 4 µM
3 | CP66-MEL (melanoma, adherent) | 0.934 | > 2 µM | 0.976 | > 20 µM | 0.966 | > 2.5 µM | 0.962 | > 5 µM | 0.978 | > 10 µM | 0.197 | 0.00346 µM | 0.978 | > 2.56 µM | 0.955 | > 10 µM | 0.985 | > 5 µM | 0.911 | > 10.2 µM | 0.98 | > 1.02 µM | 0.878 | > 16 µM | 0.642 | 1.64 µM | 0.872 | > 20 µM | 0.972 | > 4 µM
4 | CPC-N (small cell lung carcinoma, suspension) | 0.879 | > 2 µM | 0.985 | > 20 µM | 0.982 | > 2.5 µM | 0.823 | 3.32 µM | 0.965 | > 10 µM | 0.331 | 0.0104 µM | 0.985 | > 2.56 µM | 0.976 | > 10 µM | 0.985 | > 5 µM | 0.659 | 1.85 µM | 0.98 | > 1.02 µM | 0.841 | 12.7 µM | 0.731 | 3.05 µM | 0.912 | > 20 µM | 0.858 | 3.78 µM
5 | CTV-1 (acute myeloid leukaemia, suspension) | 0.223 | 0.0242 µM | 0.99 | > 20 µM | 0.983 | > 2.5 µM | 0.956 | > 5 µM | 0.965 | > 10 µM | 0.212 | 0.00575 µM | 0.953 | > 2.56 µM | 0.845 | 5.2 µM | 0.979 | > 5 µM | 0.577 | 0.992 µM | 0.984 | > 1.02 µM | 0.555 | 1.37 µM | 0.683 | 1.8 µM | 0.925 | > 20 µM | 0.814 | 1.66 µM
6 | CW-2 (large intestine, adherent) | 0.811 | 1.16 µM | 0.987 | > 20 µM | 0.982 | > 2.5 µM | 0.923 | > 5 µM | 0.983 | > 10 µM | 0.989 | > 0.512 µM | 0.989 | > 2.56 µM | 0.968 | > 10 µM | 0.988 | > 5 µM | 0.943 | > 10.2 µM | 0.988 | > 1.02 µM | 0.952 | > 16 µM | 0.827 | 6.73 µM | 0.906 | > 20 µM | 0.983 | > 4 µM
7 | D-263MG (glioma, adherent) | 0.757 | 0.826 µM | 0.979 | > 20 µM | 0.434 | 0.0993 µM | 0.591 | 0.585 µM | 0.888 | > 10 µM | 0.324 | 0.00921 µM | 0.975 | > 2.56 µM | 0.917 | > 10 µM | 0.98 | > 5 µM | 0.955 | > 10.2 µM | 0.982 | > 1.02 µM | 0.981 | > 16 µM | 0.663 | 1.97 µM | 0.983 | > 20 µM | 0.973 | > 4 µM
8 | D-502MG (glioma, adherent) | 0.849 | > 2 µM | 0.969 | > 20 µM | 0.844 | > 2.5 µM | 0.789 | 3.71 µM | 0.954 | > 10 µM | 0.657 | 0.111 µM | 0.977 | > 2.56 µM | 0.892 | > 10 µM | 0.971 | > 5 µM | 0.668 | 2.46 µM | 0.975 | > 1.02 µM | 0.682 | 4.3 µM | 0.557 | 0.974 µM | 0.955 | > 20 µM | 0.972 | > 4 µM
